Some of the results follow. Cleavage of a single-stranded DNA pool by Rep nickase domains was read by sequencing (1 h at 37 °C, 3 µM enzyme); the outer parts of the 90-letter strands are left off. Numbers give uncut DNA relative to the enzyme-free pool, as log2; strong cutting gives strongly negative numbers. There is no active / inactive call. Because reads are shares of a total, they shift together; values above 0 arise when much of the pool is cut.
System: T1, Rep nickase domain of wheat dwarf virus
T1 sequence (residues 1-137 of Rep, tag left off): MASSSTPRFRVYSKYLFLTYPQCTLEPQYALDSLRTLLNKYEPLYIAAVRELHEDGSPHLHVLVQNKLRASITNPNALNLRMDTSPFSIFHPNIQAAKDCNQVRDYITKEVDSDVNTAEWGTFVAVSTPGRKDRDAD
Assay: uncleaved DNA left, log2 of reads against the no-enzyme library (log2 ratio); higher = less cleavage (more negative = more Rep cleavage of the k-mer); sequences stand for … in CTCGTCCG…ACCGGAGA
Method: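 A pool of 90-nt single-stranded DNAs with seven random bases just before the constant AC of the nick site (name = the seven bases) was cut by 3 µM recombinant His6-SUMO-tagged Rep nickase domain (300 nM DNA, 50 mM HEPES pH 8.0, 50 mM NaCl, 1 mM MnCl2, 1 h, 37 °C, three replicates). Uncut DNA was amplified and sequenced.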

Sequence	uncleaved DNA left (log2)
CTAATCG	-0.0985
CTGGATT	0.301
ATTACGA	-0.116
CAGACAT	0.0843
GCGAGGA	0.0359
CCACTTC	-0.0571
TGACTAC	0.0585
GGCACAT	0.195
ATCCGCC	-0.0619
GTAGCTC	-0.0279
CAAAACA	-0.015
GCATTAC	-0.0503
ATTCTCA	0.268
AATTTCA	-0.15
ACAAGAT	-0.000515
GACTCAT	0.0805
TGACGAA	0.0813
TCAGTCA	0.0569
TGCGCAC	0.082
AAGGCTT	0.0491

Sequence	uncleaved DNA left (log2)
CTAGTCG	-0.191
GCGCGCG	-0.067
TGAAACA	0.171
TGCTGAA	-0.104
CAATAAC	-0.143
TTGCACT	-0.0968
GTCGGGG	0.0239
ACACGCG	0.0255
GTTCCGC	0.185
AATTTAA	-0.0679
ATGATTG	0.0878
CGGATGA	0.0716
TAGCTTG	0.0107
GTCGTAA	0.18
CCGGACA	-0.137
TGTTCCA	0.0618
GCACGCT	-0.0843
ACAATGG	-0.0506
TCGGATA	0.0789
CCCGCCT	-0.249
